Patent CN114891126A

Target: T1, FSHR (coated protein) (UniProt P23945)
T1 sequence (looked up): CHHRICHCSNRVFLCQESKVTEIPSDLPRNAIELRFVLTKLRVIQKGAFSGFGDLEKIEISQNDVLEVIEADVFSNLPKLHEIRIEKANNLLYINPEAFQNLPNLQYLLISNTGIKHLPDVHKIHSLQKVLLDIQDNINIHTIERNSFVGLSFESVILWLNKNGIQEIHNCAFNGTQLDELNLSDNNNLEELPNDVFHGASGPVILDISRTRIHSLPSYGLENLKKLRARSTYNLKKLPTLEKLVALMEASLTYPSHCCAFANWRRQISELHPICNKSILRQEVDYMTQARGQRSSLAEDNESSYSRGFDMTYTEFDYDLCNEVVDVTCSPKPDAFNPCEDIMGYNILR
Assay: ELISA: FSHR coated at 10ug/mL, 目的蛋白 at 1ug/mL, detected with HRP-Streptavidin through the Strep II tag, TMB; water-coated control well 0.0524

B1: 靶向FSHR和CD3分子的双结合蛋白 (SEQ ID NO.6) (protein)
chain: WSHPQFEKQVQLQQSGAELARPGASVKMS[here about 80 residues without letters]WGQGTTLTVSSGGGGSGGGGSGGGGSQIVLTQSPAIMSASPGEKVTMTCSASSSVSYMNWYQQKSGTSPKRWIYDTSKLASGVPAHFRGSGSGTSYSLTISGMEAEDAATYYCQQWSSNPFTFGSGTKLEINRGGGGSGGGGSGGGGSYTRDLVYKDPARPKIQKTCTFHHHHHH
- 吸光度值 (620nm) (absorbance at 620nm): 0.0564
